# Measured values as given in the supplement of paper PMC8728848.
# Some of the results follow.
# Key:
# Experiment in all cases: glycan array binding signal (z-score within array); higher = stronger binding
# Details in all cases: glycan notation: IUPAC condensed, linker removed
# Fuc(a1-2)Gal = target: Fuc(a1-2)Gal
# Outline: (§1)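 Arrays were curated from the Consortium for Functional Glycomics database, 3228 in total, and kept only where the protein sequence was available. Binding is expressed as a within-array Z-score. This score was averaged across arrays of the same protein sequence at different concentrations or buffers and across linkers, and negative values can be read as non-binding.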
# Fuc(a1-2)Gal(b1-3)GalNAc = target: Fuc(a1-2)Gal(b1-3)GalNAc
# Outline: as §1
# [1] = target: Fuc(a1-2)Gal(b1-3)GalNAc(b1-3)Gal
# Outline: as §1
# [2] = target: Fuc(a1-2)Gal(b1-3)GalNAc(b1-3)Gal(a1-4)Gal(b1-4)Glc
# Outline: as §1
# [3] = target: Fuc(a1-2)Gal(b1-3)GalNAc(b1-4)[Neu5Ac(a2-3)]Gal(b1-4)Glc
# Outline: as §1
# Fuc(a1-2)Gal(b1-3)GlcNAc = target: Fuc(a1-2)Gal(b1-3)GlcNAc
# Outline: as §1
# [4] = target: Fuc(a1-2)Gal(b1-3)GlcNAc(b1-3)Gal(b1-4)Glc
# Outline: as §1
# [5] = target: Fuc(a1-2)Gal(b1-3)[Fuc(a1-4)]GlcNAc
# Outline: as §1
# Fuc(a1-2)Gal(b1-4)Glc = target: Fuc(a1-2)Gal(b1-4)Glc
# Outline: as §1
# Fuc(a1-2)Gal(b1-4)Glc6S = target: Fuc(a1-2)Gal(b1-4)Glc6S
# Outline: as §1
# Fuc(a1-2)Gal(b1-4)GlcNAc = target: Fuc(a1-2)Gal(b1-4)GlcNAc
# Outline: as §1
# [6] = target: Fuc(a1-2)Gal(b1-4)GlcNAc(b1-3)Gal(b1-4)GlcNAc
# Outline: as §1
# [7] = target: Fuc(a1-2)Gal(b1-4)GlcNAc(b1-3)Gal(b1-4)GlcNAc(b1-3)Gal(b1-4)GlcNAc
# Outline: as §1
# [8] = target: Fuc(a1-2)Gal(b1-4)GlcNAc6S
# Outline: as §1
# [9] = target: Fuc(a1-2)Gal(b1-4)[Fuc(a1-3)]GlcNAc
# Outline: as §1
# [10] = target: Fuc(a1-2)Gal(b1-4)[Fuc(a1-3)]GlcNAc(b1-3)Gal(b1-4)[Fuc(a1-3)]GlcNAc
# Outline: as §1
# [11] = target: Fuc(a1-2)Gal(b1-4)[Fuc(a1-3)]GlcNAc(b1-3)Gal(b1-4)[Fuc(a1-3)]GlcNAc(b1-3)Gal(b1-4)[Fuc(a1-3)]GlcNAc
# Outline: as §1
# Fuc(a1-2)Gal6S(b1-4)Glc = target: Fuc(a1-2)Gal6S(b1-4)Glc
# Outline: as §1
# [12] = target: Fuc(a1-2)Gal6S(b1-4)Glc6S
# Outline: as §1
# [13] = target: Fuc(a1-2)Gal6S(b1-4)GlcNAc
# Outline: as §1
# Fuc(a1-2)[Gal(a1-3)]Gal = target: Fuc(a1-2)[Gal(a1-3)]Gal
# Outline: as §1
# [14] = target: Fuc(a1-2)[Gal(a1-3)]Gal(b1-3)GlcNAc
# Outline: as §1
# [15] = target: Fuc(a1-2)[Gal(a1-3)]Gal(b1-4)Glc
# Outline: as §1
# [16] = target: Fuc(a1-2)[Gal(a1-3)]Gal(b1-4)GlcNAc
# Outline: as §1
# [17] = target: Fuc(a1-2)[Gal(a1-3)]Gal(b1-4)[Fuc(a1-3)]GlcNAc
# Outline: as §1
# [18] = target: Fuc(a1-2)[Gal(a1-4)]Gal(b1-4)GlcNAc
# Outline: as §1
# [19] = target: Fuc(a1-2)[GalNAc(a1-3)]Gal
# Outline: as §1
# [20] = target: Fuc(a1-2)[GalNAc(a1-3)]Gal(b1-3)GlcNAc
# Outline: as §1
# [21] = target: Fuc(a1-2)[GalNAc(a1-3)]Gal(b1-4)Glc
# Outline: as §1
# [22] = target: Fuc(a1-2)[GalNAc(a1-3)]Gal(b1-4)GlcNAc
# Outline: as §1
# [23] = target: Fuc(a1-2)[GalNAc(a1-3)]Gal(b1-4)[Fuc(a1-3)]GlcNAc
# Outline: as §1
# [24] = target: Fuc(a1-2)[GalNAc(a1-4)]Gal(b1-4)GlcNAc
# Outline: as §1
# [25] = target: Fuc(a1-2)[GalNAc(b1-3)]Gal
# Outline: as §1
# Fuc(a1-3)GlcNAc = target: Fuc(a1-3)GlcNAc
# Outline: as §1
# [26] = target: Fuc(a1-3)[Gal(b1-4)]Glc6S
# Outline: as §1
# [27] = target: Fuc(a1-3)[Gal(b1-4)]GlcNAc
# Outline: as §1
# [28] = target: Fuc(a1-3)[Gal(b1-4)]GlcNAc(b1-2)Man(a1-3)[Fuc(a1-3)[Gal(b1-4)]GlcNAc(b1-2)Man(a1-6)]Man(b1-4)GlcNAc(b1-4)GlcNAc
# Outline: as §1
# [29] = target: Fuc(a1-3)[Gal(b1-4)]GlcNAc(b1-2)Man(a1-6)[Gal(b1-4)GlcNAc(b1-2)Man(a1-3)]Man(b1-4)GlcNAc(b1-4)GlcNAc
# Outline: as §1
# [30] = target: Fuc(a1-3)[Gal(b1-4)]GlcNAc(b1-3)Gal(b1-3)[Fuc(a1-4)]GlcNAc
# Outline: as §1
# [31] = target: Fuc(a1-3)[Gal(b1-4)]GlcNAc(b1-4)Gal(b1-4)[Fuc(a1-3)]GlcNAc
# Outline: as §1
# [32] = target: Fuc(a1-3)[Gal(b1-4)]GlcNAc(b1-4)Gal(b1-4)[Fuc(a1-3)]GlcNAc(b1-4)Gal(b1-4)[Fuc(a1-3)]GlcNAc
# Outline: as §1
# [33] = target: Fuc(a1-3)[Gal(b1-4)]GlcNAc6S
# Outline: as §1
# [34] = target: Fuc(a1-3)[Gal3S(b1-4)]Glc6S
# Outline: as §1
# [35] = target: Fuc(a1-3)[Gal3S(b1-4)]GlcNAc
# Outline: as §1
# [36] = target: Fuc(a1-3)[Gal3S(b1-4)]GlcNAc6S
# Outline: as §1
# [37] = target: Fuc(a1-3)[GalNAc(b1-4)]GlcNAc
# Outline: as §1
# Fuc(a1-4)GlcNAc = target: Fuc(a1-4)GlcNAc
# Outline: as §1
# Fuc(b1-3)GlcNAc = target: Fuc(b1-3)GlcNAc
# Outline: as §1
# Gal(a1-2)Gal = target: Gal(a1-2)Gal
# Outline: as §1
# Gal(a1-3)Gal = target: Gal(a1-3)Gal
# Outline: as §1
# Gal(a1-3)Gal(b1-3)GlcNAc = target: Gal(a1-3)Gal(b1-3)GlcNAc
# Outline: as §1
# Gal(a1-3)Gal(b1-4)Glc = target: Gal(a1-3)Gal(b1-4)Glc
# Outline: as §1
# Gal(a1-3)Gal(b1-4)GlcNAc = target: Gal(a1-3)Gal(b1-4)GlcNAc
# Outline: as §1
# [38] = target: Gal(a1-3)Gal(b1-4)[Fuc(a1-3)]GlcNAc
# Outline: as §1
# Gal(a1-3)GalNAc = target: Gal(a1-3)GalNAc
# Outline: as §1
# [39] = target: Gal(a1-3)[Gal(a1-4)]Gal(b1-4)GlcNAc
# Outline: as §1
# Gal(a1-4)Gal(b1-4)Glc = target: Gal(a1-4)Gal(b1-4)Glc
# Outline: as §1
# Gal(a1-4)Gal(b1-4)GlcNAc = target: Gal(a1-4)Gal(b1-4)GlcNAc
# Outline: as §1
# Gal(a1-4)GlcNAc = target: Gal(a1-4)GlcNAc
# Outline: as §1
# Gal(a1-6)Glc = target: Gal(a1-6)Glc
# Outline: as §1
binder,measurement,setting,value
"L-Selectin (Homo sapiens), P14151 (protein) MIFPWKCQSTQRDLWNIFKLWGWTMLCCDFLAHHGTDCWTYHYSEKPMNWQRARRFCRDNYTDLVAIQNKAEIEYLEKTLPFSRSYYWIGIRKIGGIWTWVGTNKSLTEEAENWGDGEPNNKKNKEDCVEIYIKRNKDAGKWNDDACHKLKAALCYTASCQPWSCSGHGECVEIINNYTCNCDVGYYGPQCQFVIQCEPLEAPELGTMDCTHPLGNFSFSSQCAFSCSEGTNLTGIEETTCGPFGNWSSPEPTCQVIQCEPLSAPDLGIMNCSHPLASFSFTSACTFICSEGTELIGKKKTICESSGIWSNPSPICQKLDKSFSMIKEGDYNPLFIPVAVMVTAFSGLAFIIWLARRLKKGKKSKRSMNDPY",glycan array binding signal (z-score),Fuc(a1-2)Gal,-0.272
same,glycan array binding signal (z-score),Fuc(a1-2)Gal(b1-3)GalNAc,-0.293
same,glycan array binding signal (z-score),[1],-0.258
same,glycan array binding signal (z-score),[2],0.04
same,glycan array binding signal (z-score),[3],0.062
same,glycan array binding signal (z-score),Fuc(a1-2)Gal(b1-3)GlcNAc,-0.269
same,glycan array binding signal (z-score),[4],-0.199
same,glycan array binding signal (z-score),[5],-0.36
same,glycan array binding signal (z-score),Fuc(a1-2)Gal(b1-4)Glc,1.57
same,glycan array binding signal (z-score),Fuc(a1-2)Gal(b1-4)Glc6S,-0.11
same,glycan array binding signal (z-score),Fuc(a1-2)Gal(b1-4)GlcNAc,-0.224
same,glycan array binding signal (z-score),[6],-0.335
same,glycan array binding signal (z-score),[7],-0.409
same,glycan array binding signal (z-score),[8],-0.183
same,glycan array binding signal (z-score),[9],-0.378
same,glycan array binding signal (z-score),[10],-0.39
same,glycan array binding signal (z-score),[11],-0.309
same,glycan array binding signal (z-score),Fuc(a1-2)Gal6S(b1-4)Glc,-0.177
same,glycan array binding signal (z-score),[12],0.159
same,glycan array binding signal (z-score),[13],-0.004
same,glycan array binding signal (z-score),Fuc(a1-2)[Gal(a1-3)]Gal,-0.191
same,glycan array binding signal (z-score),[14],-0.221
same,glycan array binding signal (z-score),[15],-0.415
same,glycan array binding signal (z-score),[16],0.067
same,glycan array binding signal (z-score),[17],-0.273
same,glycan array binding signal (z-score),[18],0.366
same,glycan array binding signal (z-score),[19],-0.368
same,glycan array binding signal (z-score),[20],-0.383
same,glycan array binding signal (z-score),[21],-0.053
same,glycan array binding signal (z-score),[22],-0.174
same,glycan array binding signal (z-score),[23],-0.212
same,glycan array binding signal (z-score),[24],-0.09
same,glycan array binding signal (z-score),[25],0.137
same,glycan array binding signal (z-score),Fuc(a1-3)GlcNAc,-0.223
same,glycan array binding signal (z-score),[26],0.137
same,glycan array binding signal (z-score),[27],-0.005
same,glycan array binding signal (z-score),[28],0.164
same,glycan array binding signal (z-score),[29],-0.284
same,glycan array binding signal (z-score),[30],-0.294
same,glycan array binding signal (z-score),[31],-0.145
same,glycan array binding signal (z-score),[32],-0.343
same,glycan array binding signal (z-score),[33],-0.109
same,glycan array binding signal (z-score),[34],6.9
same,glycan array binding signal (z-score),[35],-0.113
same,glycan array binding signal (z-score),[36],8.15
same,glycan array binding signal (z-score),[37],-0.255
same,glycan array binding signal (z-score),Fuc(a1-4)GlcNAc,-0.311
same,glycan array binding signal (z-score),Fuc(b1-3)GlcNAc,-0.243
same,glycan array binding signal (z-score),Gal(a1-2)Gal,-0.195
same,glycan array binding signal (z-score),Gal(a1-3)Gal,0.225
same,glycan array binding signal (z-score),Gal(a1-3)Gal(b1-3)GlcNAc,-0.321
same,glycan array binding signal (z-score),Gal(a1-3)Gal(b1-4)Glc,-0.351
same,glycan array binding signal (z-score),Gal(a1-3)Gal(b1-4)GlcNAc,-0.365
same,glycan array binding signal (z-score),[38],-0.211
same,glycan array binding signal (z-score),Gal(a1-3)GalNAc,-0.013
same,glycan array binding signal (z-score),[39],-0.342
same,glycan array binding signal (z-score),Gal(a1-4)Gal(b1-4)Glc,-0.139
same,glycan array binding signal (z-score),Gal(a1-4)Gal(b1-4)GlcNAc,-0.141
same,glycan array binding signal (z-score),Gal(a1-4)GlcNAc,-0.267
same,glycan array binding signal (z-score),Gal(a1-6)Glc,0.48
